Assay results as given in the supplement of paper PMC10338343.
± gives the standard deviation. The entries are a selection whose mix differs from that of the whole data set.

test system: MIWI (PIWIL1) piRISC loaded with L1MC piRNA (30 nt); experiment: pre-steady-state target cleavage rate (min^-1); MIWI and MILI are mouse PIWI proteins and EfPiwi is from a freshwater sponge; tags in brackets are library labels; higher = faster piRNA-guided slicing of the target; conditions: guide: L1MC piRNA 5'p-UAACUAAAUACUAUGCAAGCUGUAGGUCCU; auxiliary factor: 500 nM mouse GTSF1
Method in brief: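 In Cleave-'n-Seq, a transcribed, DNA-blocked target RNA library (0.1 nM) was combined with 1 nM active affinity-purified piRISC bearing one synthetic guide, with or without 500 nM GTSF1 partner protein. Reactions ran in HEPES–potassium acetate buffer at 33 °C for 0–8 or 0–960 min. Uncleaved targets were sequenced and normalised to depth and to weakly complementary targets, three trials were pooled, and k3 was capped at 0.0001 min^-1. The pre-steady-state cleavage rate was obtained by fitting a burst-and-steady-state model.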

Sequence | pre-steady-state target cleavage rate
UCGACCUACAGCUACGAUAGUAUUUAGUUA | 0.135 ± 0.021
UCCUGCAUCAGCUUGCAUAGUAUUUUCAAA | 0.328 ± 0.06
UCCUGGAUGUCGAUGCAUAGUAUUUAGUUUA | 0.0105 ± 0.005
UCCUCCUACAGCUUGCAUAGUAUAAAGAAA | 0.249 ± 0.049
AGGACCUACAGCUUGCAUAGAUAUUAGUAA | 0.123 ± 0.042
UCCUGGAUGUCCUUGCAUAGUAUAUUAGUUA | 0.025 ± 0.0089
UCCACCUACAGCUUGCAUAGUAUAAACAAA | 0.226 ± 0.034
UCCUGGAUCAGCUUGCAUUCUAUUUAGUAA | 0.0206 ± 0.0076
UCCACCUACAGCUUGCAUCAGUAUUUAGUUA | 0.0253 ± 0.011
UCCUGGAUCAGCUACCAUAGUAUUUAGUAA | 0.00688 ± 0.0035
UGGCACCUACAGCUUGCAUAGUAUUUAGUUA | 2.2 ± 0.89
UCGAGCUACAGCUUGCAUAGUAUUUUCAAA | 0.269 ± 0.039
UCCUGGAUGAGCUAGCAUAGUAUUUAGAAA | 0.124 ± 0.029
UCCUGGAUCUGCUUCCAUAGUAUUUAGUUA | 0.0123 ± 0.0024
UCCUGGAUGUCGAACCAAUCUAUUUAGUUA | < 0.0001
UCCUCCUACAGCUUGCAAUGUAUUUAGUAA | 0.284 ± 0.024
UCCUGGUACUCCUUGCAUAGUAUUUACAAA | 0.0182 ± 0.0084
UCCUGGUACAGCUUCCAUAGUAUUUAGUAA | 0.0195 ± 0.01
UCCUGCUACAGCUUGCAAUAGUAUUUAGUUA | 0.0619 ± 0.014
UCCUCCUACAGCAUCCAUAGUAUUUAGUUA | 0.168 ± 0.037

Sequence | pre-steady-state target cleavage rate
UCCUGGAUGUCCAUGCAAAGUAUUUAGUUA | 0.00607 ± 0.0045
UCCUGGAUGUCCAUGCAUAGUAUUUUGUUA | 0.00484 ± 0.0039
UCCUGCUACACGUUGCAUAGUAUUUUCAAA | 0.0964 ± 0.031
UCGACCUACACGAUGCAUAGUAUUUUCAAA | 0.182 ± 0.032
UCCUGGAUGUCGUUGCAUACUAUUUAGUUA | 0.00357 ± 0.0027
UCCUGGUACUGCUUGCAUAGUAUUUACAAA | 0.0877 ± 0.021
AGGACCUACAGCUUGCAUAGUUAUUACAAA | 0.158 ± 0.048
UCCUCCUACAGCUUGCAUAGUAUUAUGAAA | 0.287 ± 0.046
UCCACCUACAGCUUGCAUUAGUAUUUAGUUA | 0.0935 ± 0.034
UCCUGGAUGUCGAACGUUAGUAUUUAGUUU [g2:g13:cont:t1U] | < 0.0001
UCGUGCUACAGCUUGCAUAGUAUUUUCAAA | 0.255 ± 0.038
UCCACCUACAGCUUGCAUAGUAUUAGUUA | 0.181 ± 0.028
UCCUGGAUGUCGAACCAUAGUAUUUGAGUUA | < 0.0001
UGGACCUACAGCUUCCAUACUAUUUAGUUA | 0.00362 ± 0.0031
UCCUGGAUGUCGAACCAUAGUAUUUAGUGUA | < 0.0001
UCGACCUACAGCUUGCAUAGUUAAUUCAAA | 0.538 ± 0.15
UCCACCUACAGCUUGGAUAGUAUUUACAAA | 0.0852 ± 0.017
UCCUGGAUGUCCUUGCUAAGUAUUUAGUAA | 0.00854 ± 0.0055
UCCUGCUACAGCUUGCAUAGUAAAUUCAAA | 0.0226 ± 0.0092
UCCUGGUACAGCUUGCAAUGUAUUUACAAA | 0.0171 ± 0.0072
